Data: the supplement of paper PMC9446081
Among all 39,000 compounds or so, about 220 (0.56%) showed activity. The list shows a part of the results.

tested on: Escherichia coli K-12 BW25113; assay: relative growth (OD600 normalised to plate interquartile mean) (fraction); higher = less growth inhibition, active = 0.2 or less; details: 50 µM; LB; incubation time: overnight (16-24 h)
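Also: static incubation at 37 °C against the wild-type strain, values averaged over two biological replicates.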

| Structure (SMILES) | relative growth |
| --- | --- |
| C[C@H]1CCCCO[C@@H](CN(C)C(=O)Nc2ccccc2)[C@@H](C)CN([C@@H](C)CO)C(=O)c2cc(NS(=O)(=O)c3cccs3)ccc2O1 | inactive: 0.991 |
| COc1ccc(-n2nc(C(N)=O)c3c2C(=O)N(c2ccc(N4CCCCC4=O)cc2)CC3)cc1 | inactive: 1.05 |
| COCC#Cc1ccc2c(c1)O[C@H](CN(C)S(=O)(=O)c1ccc(OC)cc1)[C@@H](C)CN([C@H](C)CO)S2(=O)=O | inactive: 1.01 |
| O=C(C[C@@H]1C[C@H]2c3cc(NC(=O)c4cccnc4)ccc3O[C@H]2[C@@H](CO)O1)NCc1cc(F)ccc1F | inactive: 0.979 |
| COc1ccc(S(=O)(=O)Nc2ccc3c(c2)CC(=O)N([C@@H](C)CO)C[C@H](C)[C@@H](CN(C)S(=O)(=O)c2ccccc2)O3)cc1 | inactive: 0.996 |
| COc1nn(C)cc1C(=O)NC1=NCCS1 | inactive: 1 |
| C[C@@H]1CN([C@@H](C)CO)C(=O)c2cc(NC(=O)c3ccncc3)ccc2O[C@@H](C)CCCCO[C@H]1CN(C)C(=O)Nc1ccccc1 | inactive: 0.979 |
| COc1ccc([Si](C)(C)[C@H]2[C@H](CC(=O)N3Cc4ccccc4C[C@H]3CO)O[C@@]3(C(=O)N(C)c4c(Br)cc(C)cc43)[C@@H]2C)cc1 | inactive: 1.01 |
| Cc1ccc(S(=O)(=O)N(C)C[C@@H]2Oc3ccc(NC(=O)Cn4cnnn4)cc3C(=O)N([C@@H](C)CO)C[C@@H]2C)cc1 | inactive: 0.964 |
| CO[C@@H]1CN(C)C(=O)c2ccc(NS(=O)(=O)CC(F)(F)F)cc2OC[C@@H](C)N(Cc2nccs2)C[C@H]1C | inactive: 1.03 |
| C[C@@H]1CN([C@@H](C)CO)C(=O)Cc2cc(NC(=O)Nc3ccc(F)cc3)ccc2O[C@H]1CN(C)S(=O)(=O)c1cn(C)cn1 | inactive: 0.979 |
| COc1ccc(CN(C)C[C@H]2OCCCC[C@H](C)Oc3ccc(NC(=O)c4ccncc4)cc3C(=O)N([C@@H](C)CO)C[C@@H]2C)cc1 | inactive: 0.968 |
| C[C@@H]1CN([C@H](C)CO)S(=O)(=O)c2ccc(C#CCN(C)C)cc2O[C@@H]1CN(C)Cc1ccc2c(c1)OCO2 | inactive: 0.994 |
| COc1cccc(S(=O)(=O)N2C[C@@H](O)COC[C@@H]3O[C@H](CC(=O)N4CCN(c5ccccc5)CC4)CC[C@H]32)c1 | inactive: 1.01 |
| C[C@H](CO)N1C[C@H](C)[C@H](CN(C)S(=O)(=O)c2cccs2)Oc2ccc(NC(=O)Cc3ccccc3)cc2C1=O | inactive: 0.986 |
| CC(=O)CCc1ccc(OC(C)=O)cc1 | inactive: 0.898 |
| C=CCC[C@@H](Cc1ccc(F)cc1)C(=O)OC[C@@H](NC(=O)[C@@H](CC=C)CC(=O)N(CCO)Cc1ccccc1)C(C)(C)C | inactive: 1.05 |
| CN(C)CC(=O)N[C@H]1CC[C@@H](CC(=O)NCCN2CCCCC2)O[C@@H]1CO | inactive: 0.995 |

| Structure (SMILES) | relative growth |
| --- | --- |
| O=C1C=CC(O)(/C=C/C(=O)O[C@@H]2[C@@H](O)[C@H](Oc3ccc(O)cc3)O[C@H](CO)[C@H]2O)C=C1 | inactive: 1.01 |
| C[C@H]1CCCCO[C@@H](CN(C)CC2CCCCC2)[C@@H](C)CN([C@@H](C)CO)C(=O)c2cc(NS(=O)(=O)c3ccc(F)cc3)ccc2O1 | inactive: 0.987 |
| C[C@@H]1CCCCO[C@H](CN(C)C(=O)Nc2ccc(C(F)(F)F)cc2)[C@H](C)CN([C@@H](C)CO)C(=O)c2cc(NS(=O)(=O)c3cn(C)cn3)ccc2O1 | inactive: 0.864 |
| C[C@H](CO)N1C[C@H](C)[C@H](CN(C)S(=O)(=O)c2cn(C)cn2)Oc2c(NS(=O)(=O)c3cccs3)cccc2C1=O | inactive: 1 |
| CC(=O)Oc1cccc(C(=O)O)c1OC(C)=O | inactive: 1.08 |
| COc1cc2c(cc1OC)CN(C[C@H]1C[C@H](c3ccccc3)O[C@H](c3ccc(NC(=O)CCCCCCC(=O)NO)cc3)O1)CC2 | inactive: 0.996 |
| COc1ncc(-c2ccc3c(Nc4cc(Oc5cc(F)cc(F)c5)cc(C(=O)O)c4)c(S(=O)(=O)NC4CC4)cnc3c2)c(OC)n1 | inactive: 1.02 |
| C[C@@H]1CN([C@H](C)CO)C(=O)c2cccc(NC(=O)C3CCOCC3)c2O[C@H]1CN(C)C(=O)Nc1ccc2c(c1)OCO2 | inactive: 1.04 |
| C[C@@H]1CN([C@H](C)CO)S(=O)(=O)c2ccc(C#CC3CCCC3)cc2O[C@@H]1CN(C)C(=O)Cc1ccncc1 | inactive: 0.974 |
| COc1ccc(S(=O)(=O)N(C)C[C@@H]2OCCCC[C@@H](C)Oc3ccc(NC(=O)Nc4ccc(C(F)(F)F)cc4)cc3C(=O)N([C@@H](C)CO)C[C@@H]2C)cc1 | inactive: 1.01 |
| COc1ccc(NC(=O)Nc2ccc3c(c2)C(=O)N([C@@H](C)CO)C[C@@H](C)[C@@H](CN(C)S(C)(=O)=O)O3)cc1 | inactive: 1.02 |
| CC(C)NC(=O)Nc1ccc2c(c1)C(=O)N([C@@H](C)CO)C[C@@H](C)[C@H](CN(C)C(=O)Nc1ccc(F)cc1)OCCCC[C@@H](C)O2 | inactive: 0.982 |
| COc1ccc(NC(=O)Nc2ccc3c(c2)C(=O)N([C@@H](C)CO)C[C@H](C)[C@@H](CN(C)C(=O)Nc2ccc(C(F)(F)F)cc2)OCCCC[C@H](C)O3)cc1 | inactive: 1.03 |
| COc1ccc(NC(=O)N(C)C[C@@H]2Oc3ncc(C#C[C@@H](C)O)cc3C(=O)N([C@H](C)CO)C[C@@H]2C)cc1 | inactive: 1 |
| C[C@@H]1CN([C@H](C)CO)C(=O)c2cc(NC(=O)NC3CCCCC3)ccc2O[C@@H](C)CCCCO[C@H]1CN(C)S(=O)(=O)c1ccc(Cl)cc1 | inactive: 0.975 |
| C[C@@H]1CN([C@@H](C)CO)C(=O)Cc2cc(NC(=O)Cc3ccccc3)ccc2O[C@H]1CN(C)C(=O)Nc1cccc2ccccc12 | inactive: 0.988 |
| C[C@H]1CN([C@@H](C)CO)C(=O)c2cc(NC(=O)c3ccncc3)ccc2O[C@H]1CN(C)Cc1ccncc1 | inactive: 1 |
| C[C@H](CO)N1C[C@H](C)[C@H](CN(C)C(=O)Nc2ccc(F)cc2)OCCCC[C@H](C)Oc2ccc(NC(=O)Nc3ccc(F)cc3)cc2C1=O | inactive: 1.06 |
